# Laboratory results: the supplement of paper PMC10126150
# Values marked as one replicate rest on one cluster of the flow cell; about a third of the high ones do not repeat.
# Tested on: ATP
# Assay: switch fluorescence ratio, 500 uM ATP over buffer (Cy3 cluster intensity, sum of 5 cycles each) (fold (ratio)); higher = stronger signal-on switching upon ATP binding; sequences stand for … in TCGTCGGCAGCGTCAGATGTGTATAAGAGACAGTTTTTTTTTTTTTTTTTTTTTTTTT…TC
# Settings: aptamer strand: ATP DNA aptamer (quencher-CACCTGGGGGAGTATTGCGGAGGAAGG + anchor), 100 nM annealed; ATP concentration: 500 uM; one replicate
# Method in brief: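 Values give the fluorescence ratio for each switch-domain sequence, averaged from per-cluster ratios of summed target-cycle to summed buffer-cycle Cy3 intensity. The Cy3-labelled switching-strand clusters sat on a modified Illumina MiSeq flow-cell, were annealed to 100 nM quencher-labelled ATP aptamer, and were imaged in selection buffer, then after 15 min with 500 uM ATP at 22 °C. Five cycles ran with NaOH stripping and re-annealing between them, and clusters outside 100-1000 RFU were excluded.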
# 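Further: ATP exposure 15 min at 22 °C before imaging.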
row,Sequence,switch fluorescence ratio
1,TTAGGGATTT,1
2,AGGCTGGCTT,1.01
3,ATGTTGTCTT,1.02
4,TTTTCAGGGA,1
5,ATTAGGCCCT,1.03
6,CGGTACGTCC,1
7,AGGCGCGGGC,0.977
8,TCATCTCCAC,1.02
9,GTAGGTGATG,1.02
10,AACCAGCCAT,1.03
11,GGCGGCCCCG,0.994
12,AACAGGTTCC,1.08
13,ATTTACTAGG,1.01
14,CTCGATAAA,0.968
15,ATATAGTCAG,0.947
16,TGGTAGTAAA,1
17,GAGATTGTAT,1.02
18,CCCTATTGTT,1.09
19,TTACCATAG,1.12
20,AGGATAATTG,0.958
21,TTAAGTCATC,0.997
22,CGAAGTCTCC,1.31
23,ACGCCTCTGA,1.13
24,CCGCATGAGT,3.7
25,TCCCCATATG,1.02

row,Sequence,switch fluorescence ratio
1,ATGAATAGGG,0.955
2,TAGACGTCGC,1.04
3,ACACATATCT,1.02
4,TTTTCCTGAA,0.991
5,ATGGGAGGAG,0.989
6,GCAGCTTATG,1.04
7,CAGAGAAATA,1.03
8,TTAAATGGAG,1.01
9,ACTAGTCTGA,1.04
10,AGGCCATACG,1.01
11,TACAAAAATT,1.08
12,GCTCTGACGT,1.08
13,AAGATGCACC,1.03
14,ATCTGGGGA,1.02
15,TTAGTGAGAA,1.02
16,GTAGGCTAGC,1.03
17,GATAATGCA,0.978
18,TTTTAATCGC,0.991
19,GCGGTTGTCA,0.961
20,TTGGTATATG,1
21,CAGCACGAAA,1.09
22,TTAAGAACGA,0.986
23,GGCAATCAAA,1.06
24,TCTTTTCACC,1.04
25,TCCCGTAAGA,1.07

row,Sequence,switch fluorescence ratio
1,AGTGGTCTAA,1
2,TATGAAGGAC,1.01
3,TAGTCCCTTA,1.07
4,GTCGGCGAGG,0.969
5,CTTTGTCGTA,0.999
6,AACTAGGCGA,1.06
7,TTGGAAGTGT,1.13
8,TTGACTTTA,1.06
9,GCCGGGTCA,0.961
10,ACGACCCGGT,2.42
11,AAAAGCGTCG,1.02
12,CGCACGTCTA,1.04
13,TAGTCATAGG,0.968
14,AGGTGGGGC,1.06
15,ATATAATAAA,1.02
16,TGCGTATAAT,0.921
17,AAACTACACA,1.38
18,GTTATGTTAT,1.06
19,GGACGCTCCT,1.08
20,GTGCGCAGGT,1.03
21,CCACGAAATT,1
22,TGGAAGAACA,1.03
23,CACGATGAGA,1.03
24,GTGGCATGCT,1.01
25,ATGGGAAAGG,0.99

row,Sequence,switch fluorescence ratio
1,AAGACATAGG,1.01
2,CAGTCGATTT,0.975
3,CCCAGCGATG,1.93
4,CTGCGTTCTT,1.03
5,GGATTTTTCC,1.07
6,CAGAGTGCCA,1.01
7,TCTAGTAAGT,0.989
8,CAACACAATA,1.53
9,TAAAAAGTCG,1.06
10,TTAGGAGGTA,0.966
11,GTCGATTGCA,1.04
12,CGGAGCGGT,3.14
13,TCAGAAATGC,2.45
14,AAGCTCACCA,1.09
15,CACAACAAAG,1.01
16,GTGTGCATTG,1.03
17,CCAGGGATAA,1.07
18,ACTGACCCCT,1.17
19,ATACGCGTTC,1.11
20,TCCTAGGCT,1.04
21,GCAAAAATG,0.992
22,GGCGTGGAAA,1.06
23,TCAGGCACGA,0.988
24,ACCGGGCGGG,0.996
25,ATTTGCTCGT,1
